Results from the supplement of paper PMC4166925.
± gives the standard deviation of the averaged measurements. The full ranking holds about 33,000 sequences; the median of “E-score (dimensionless, -0.5 to 0.5)” is about -0.046, and the highest 2% start at about 0.36. Some of the results follow.

Test system: T1, SpTbr T-box DNA-binding domain (GST fusion)
T1 sequence: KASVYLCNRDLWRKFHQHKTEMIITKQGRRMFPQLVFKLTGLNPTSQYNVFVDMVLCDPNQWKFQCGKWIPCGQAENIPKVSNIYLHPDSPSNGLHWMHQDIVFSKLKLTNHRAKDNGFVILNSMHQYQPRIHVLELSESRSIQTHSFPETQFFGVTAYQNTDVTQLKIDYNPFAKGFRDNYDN
Test: PBM E-score of 8-mer (E-score (dimensionless, -0.5 to 0.5)); Tbr is Tbrain of the sea star Patiria miniata (Pm) or the sea urchin Strongylocentrotus purpuratus (Sp); higher = stronger binding preference; most listed sequences are background and not binding sites
Details: the construct has about 5 more residues each side
Outline: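 Each ungapped 8-mer received an enrichment E-score from the Universal PBM Analysis Suite, averaged over duplicate arrays. The proteins were Tbr T-box DNA-binding domains, covering the whole T-box plus about five flanking residues, fused to GST and expressed in BL21 E. coli at 20 °C before glutathione affinity purification. Universal Agilent oligonucleotide arrays were made double-stranded by primer extension and incubated with 200 nM protein in PBS (pH 7.5). The arrays were then scanned and quantified, and every 8-mer was scored from probe intensities.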

Sequence | PBM E-score of 8-mer
AGGGGATA | -0.145 ± 0.048
ATTTAGTG | 0.089 ± 0.0092
ATGATATA | -0.0184 ± 0.0082
CTACTCCC | -0.28218 ± 7.1e-05
AGGTGTAT | 0.281 ± 0.011
ATAGCACA | 0.156 ± 0.06
ACGGTTAC | -0.0916 ± 0.0079
CGTAAACG | 0.132 ± 0.0021
CTTGGGAC | -0.176 ± 0.013
CTACCGTA | -0.106 ± 0.02
ACCGTTTC | -0.0737 ± 0.069
AAGTCTGT | -0.148 ± 0.015
GACCGCCC | -0.266 ± 0.006
CGGGTTGC | 0.117 ± 0.042
ATACGAAG | -0.163 ± 0.037
AAATAAAC | -0.0755 ± 0.03
CCGACAGC | 0.0618 ± 0.012
CCCTTTAG | -0.066 ± 0.044
CTACTAGA | -0.274 ± 0.038
AAGACGAA | -0.262 ± 0.011
TAATGCAA | -0.121 ± 0.037
ATCTCTCC | -0.186 ± 0.01
CAAATATG | -0.111 ± 0.089
CTAACCAG | -0.0504 ± 0.022
GCCAACGC | 0.104 ± 0.027

Sequence | PBM E-score of 8-mer
GATCAATC | -0.18 ± 0.049
AAACAGGA | -0.22 ± 0.036
CAGCGCTG | -0.0514 ± 0.065
CCGTAGGA | -0.156 ± 0.057
AATGCGCC | 0.102 ± 0.0031
GGAAGGCA | -0.0731 ± 0.02
CCATTTTA | -0.0241 ± 0.076
CGTGGCCA | 0.0471 ± 0.044
AACTTTCT | -0.0316 ± 0.029
ATTTCTCC | -0.0476 ± 0.041
ATAGTAGC | -0.0197 ± 0.089
GGACGGCA | -0.108 ± 0.04
CGGATCGC | 0.065 ± 0.0046
GTGTGACA | 0.457 ± 0.0047
AAGCTGAA | -0.151 ± 0.035
ACTTGCCG | 0.14 ± 0.053
ATCGAGTG | 0.147 ± 0.068
GGAGCACC | -0.173 ± 0.18
AGTATGGC | -0.0766 ± 0.024
CTGACAAC | 0.259 ± 0.018
AGGTTTCG | -0.00807 ± 0.075
ATCAGGAC | -0.3 ± 0.086
ATCGCCGC | -0.0342 ± 0.074
GTCCGCGA | 0.218 ± 0.077
AAGGTGCC | 0.364 ± 0.0073

Sequence | PBM E-score of 8-mer
GTTGATAA | 0.123 ± 0.022
GGCCTCCA | -0.283 ± 0.046
ACGGCTTC | -0.0947 ± 0.026
GAGAATGA | 0.066 ± 0.034
CGACCACG | 0.0943 ± 0.031
CTGCAGCC | -0.0833 ± 0.066
TCTTGTCA | 0.24 ± 0.014
CGATAATA | 0.0189 ± 0.021
TAAATTTA | -0.119 ± 0.15
AACGTCCG | -0.176 ± 0.067
GATCACTA | -0.109 ± 0.12
AGTCCGCA | 0.00453 ± 0.0042
CGTCCGTC | -0.0735 ± 0.0026
GAGCGGTA | -0.181 ± 0.043
CTTCGTCC | -0.0546 ± 0.022
ACAAAAGA | -0.223 ± 0.066
ATGGGTAC | -0.193 ± 0.058
TAAAGCGA | -0.0669 ± 0.031
AACCATCT | -0.148 ± 0.046
AGTTTAGG | -0.0808 ± 0.015
CACGATGC | 0.155 ± 0.037
CGTTCGAA | -0.228 ± 0.011
AATGCAGA | -0.212 ± 0.018
CCCCTCGC | -0.055 ± 0.024
GGACTACA | -0.248 ± 0.022

Sequence | PBM E-score of 8-mer
GCTGATAA | 0.00362 ± 0.015
CGGAAAAC | -0.234 ± 0.027
CATAGATC | -0.112 ± 0.042
TGGTGTAA | 0.292 ± 0.059
CACTCCCA | 0.216 ± 0.035
AAACTACG | -0.0644 ± 0.076
AACTAAAA | -0.0486 ± 0.07
AACGTATA | -0.0511 ± 0.11
CGCATGAG | -0.0159 ± 0.056
ATTACAAT | -0.17 ± 0.059
ATTCGTCG | 0.133 ± 0.016
ATGGCTGG | -0.138 ± 0.012
ACATCCGT | 0.112 ± 0.015
CCGGGGTC | -0.116 ± 0.035
ATCAAGGC | -0.207 ± 0.0082
ACGCAACA | 0.121 ± 0.024
GATCACCA | 0.112 ± 0.033
CTCAGCAC | 0.171 ± 0.0069
CACCAGCA | 0.162 ± 0.062
AAACGGCC | -0.232 ± 0.024
CGGGTTGA | -0.02353 ± 0.00017
CCTGGAAA | -0.207 ± 0.089
GTGGAGAA | 0.0416 ± 0.068
TACGCGTA | 0.177 ± 0.034
CCTTCGCA | 0.3329 ± 0.002

Sequence | PBM E-score of 8-mer
GTTCCCTA | -0.277 ± 0.018
ACTACGAA | -0.0684 ± 0.063
GCTACCTA | -0.0771 ± 0.051
GTGATGCA | -0.0412 ± 0.099
GGGGGAGA | -0.2 ± 0.012
ATTCGACA | 0.138 ± 0.032
AGGACGGC | -0.337 ± 0.0074
AGCCGCGG | -0.149 ± 0.057
GCTAGGCA | -0.0643 ± 0.013
ACACCTTC | 0.4746 ± 0.0017
AGGAAGGA | -0.185 ± 0.0035
AACCCTTA | -0.129 ± 0.029
TACAGCAA | -0.09 ± 0.046
CGGGTTCC | -0.149 ± 0.082
AACTGAAC | -0.206 ± 0.09
CCAGCTGA | -0.1204 ± 0.00066
CATAAAAC | -0.0916 ± 0.077
ATATGACA | 0.0532 ± 0.042
CTACCACA | 0.0868 ± 0.013
CATGGCGA | 0.0624 ± 0.041
ATGTTGGG | -0.0592 ± 0.0084
CCGCCTGC | 0.165 ± 0.03
CCACTCAA | 0.0906 ± 0.068
GAATTTAA | -0.146 ± 0.089
GTCGCCAA | 0.245 ± 0.02

Sequence | PBM E-score of 8-mer
TCACAACA | 0.363 ± 0.0075
CATCTGTA | -0.0572 ± 0.038
AGTGGCTC | -0.103 ± 0.045
AAGAACTA | -0.177 ± 0.055
AGGTACAG | -0.35 ± 0.027
CACCAACA | 0.247 ± 0.042
TCGAGTCA | -0.184 ± 0.017
GATATTGA | -0.191 ± 0.084
TAGAAACA | -0.248 ± 0.0026
CTACGCAG | 0.02 ± 0.0093
CGTCTGGC | -0.0753 ± 0.033
ATCGCAGC | 0.0579 ± 0.024
GCTGTAAA | 0.0886 ± 0.048
ATACACAA | -0.0928 ± 0.023
AAACGGGG | -0.0657 ± 0.052
CCGGCAGC | 0.0786 ± 0.11
AGGCTCCG | -0.041 ± 0.009
ACGCGGAG | -0.184 ± 0.037
CGGTCCCC | -0.214 ± 0.017
GACCAGAC | -0.212 ± 0.023
AGGAGATA | -0.139 ± 0.0077
GGGCCGTA | -0.386 ± 0.01
CGTCTTAG | 0.0956 ± 0.011
ATAGCAGG | 0.0472 ± 0.074
AACTCAGG | -0.0823 ± 0.00092

Sequence | PBM E-score of 8-mer
CGCTGTAG | -0.117 ± 0.051
CGCCTTGC | 0.137 ± 0.044
TGACGTAA | -0.098 ± 0.019
AGGATTTG | -0.245 ± 0.05
AATAATTC | -0.113 ± 0.025
ATCCCTGC | -0.0783 ± 0.063
ACCCAGAA | -0.0437 ± 0.029
AAATTAGG | -0.149 ± 0.072
AGGACTAC | -0.215 ± 0.06
AAGAGTCC | -0.222 ± 0.021
ATTTAGGA | -0.296 ± 0.037
CAGGCACC | -0.131 ± 0.02
GCCTCTGA | -0.087 ± 0.038
ATAATGAA | -0.167 ± 0.061
CTCGTCAG | 0.0774 ± 0.031
CCGCTCTC | -0.00942 ± 0.013
ACATGCCA | 0.135 ± 0.029
TCAGGAGA | -0.236 ± 0.035
CCGTAACG | 0.016 ± 0.031
GAGGGAAC | -0.0664 ± 0.028
GAGGTAAA | -0.14 ± 0.026
ACGGTATA | 0.119 ± 0.03
